Source: PubChem BioAssay AID504832 (National Center for Advancing Translational Sciences (NCATS), 2011)
About 18,000 (5.8%) of roughly 310,000 compounds were called active. The inconclusive results got no clear call from the source; some entries with a clear call stand among them for comparison. Calls follow the shape of the dose curve; as a rule, active = well fitted inhibition curve with a large enough effect; inconclusive = small, poorly fitted or top-dose-only effect, or another doubt; inactive = no such curve, though single readings can be large or run the other way. Potencies of inconclusive entries are left out as doubtful fits.

Assay: Primary qHTS for delayed death inhibitors of the malarial parasite plastid, 48 hour incubation
Conditions: P. falciparum luciferase growth in erythrocytes; series mostly up to 28.7 µM
In short: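 Growth was read as firefly luciferase luminescence after a 48 h, 37 C, 5% CO2 exposure of compounds to reporter-bearing P. falciparum cultures (0.1% parasitemia, 2% hematocrit final) in Albumax-supplemented RPMI 1640.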
Potency is read from the fitted curve at half-maximal effect; tags tell the direction and shape of the fitted curve.

| Structure (SMILES) | Potency |
| --- | --- |
| C=CCn1c(SCC(=O)NC23CC4CC(CC(C4)C2)C3)nc(O)cc1=O | inconclusive [inhibitor, partial curve] |
| CCCN1CCC(N2CCCC(C(=O)O)C2)CC1 (centres undefined) | inactive |
| C=CCOc1ccccc1CN1CCC(n2nccc2NC(=O)C2CC2)CC1 | inactive |
| Cc1cc(-c2cc(C(=O)NC3CCCC3)on2)nc(NC2CCCC2)n1 | inconclusive [inhibitor, single point] |
| Cc1ccc(S(=O)(=O)Cc2ccc(C(=O)N3CCCCC3C)cc2)cc1 (centres undefined) | inconclusive [inhibitor, single point] |
| C/C(CC(=O)Nc1ccc(Cl)cc1C(F)(F)F)=N\NC(=O)c1ccccn1 | inactive |
| Oc1c(C(Nc2nc3ccccc3s2)c2ccco2)ccc2cccnc12 (centres undefined) | active: 0.104 µM |
| Cc1cnn(C(=S)NCCc2ccccc2)c1 | inactive |
| O=C(Nc1ccccc1-c1nc2ccccc2[nH]1)c1ccc(S(=O)(=O)N2CCCCC2)cc1 | inconclusive [inhibitor, partial curve] |
| C=CCN(CC=C)C(=S)NC(=O)c1ccc(OC)c(Br)c1 | active: 10.4 µM |
| Cc1noc(/C=C/N(C)C)c1S(=O)(=O)N1CCCC(C(=O)NCCC2=CCCCC2)C1 (centres undefined) | inconclusive [inhibitor, partial curve] |
| COc1cc(NC(=S)NN2CCN(C)CC2)cc(OC)c1 | inactive |
| Cc1cccc(NC(=O)CN2CCSc3ccccc32)c1 | inactive |
| CC(=O)N=c1c(C#N)cc2c(=O)n3cccc(C)c3nc2n1CCCOC(C)C | inconclusive [inhibitor, partial curve] |
| CC(C)CNS(=O)(=O)c1cc(C(=O)OCC(=O)N2CCOCC2)c(Cl)cc1Cl | inconclusive [inhibitor, full curve, poor fit] |
| O=C1c2cccc3cccc(c23)C(=O)N1c1ccc2ncccc2c1 | inconclusive [inhibitor, single point] |
| Cc1nnc2sc(-c3cccc(NC(=O)c4cccnc4)c3)nn12 | inconclusive [inhibitor, single point] |
| O/N=C/c1cc2ccccc2n1Cc1ccccc1F | active: 2.62 µM |
| CCC1NC(=O)C(NC(=O)c2ncccc2O)C(C)OC(=O)C(c2ccccc2)NC(=O)C2CC(=O)CCN2C(=O)C(Cc2ccccc2)N(C)C(=O)C2CCCN2C1=O (centres undefined) | inconclusive [inhibitor, single point] |
| COc1ccc(-c2csc(Nc3cc(C)ccn3)n2)cc1C | inconclusive [inhibitor, partial curve, poor fit] |
| CCOc1ccc(C(=O)NC2CCN(C(=O)Nc3ccc(F)cc3)CC2)cc1 | inactive |
| COc1cc(NC(=S)N2CCN(C(=O)C3CCCO3)CC2)c(OC)cc1Cl (centres undefined) | inactive |
| O=C(c1cc(COc2ccc(F)cc2Cl)on1)N1CCCC(OCc2cccnc2)C1 (centres undefined) | inconclusive [inhibitor, single point] |

| Structure (SMILES) | Potency |
| --- | --- |
| CC(C(=O)N1CCc2ccccc21)N1CCN(c2cccc(C(F)(F)F)c2)CC1 (centres undefined) | inconclusive [inhibitor, partial curve, poor fit] |
| O=S(=O)(NC(=NC1CCCCC1)c1ccccc1)c1ccc(F)cc1 | inconclusive [inhibitor, partial curve, poor fit] |
| CCN(CC)S(=O)(=O)c1ccc(C(=O)NC2=C(C(=O)OC)SCC2)cc1 | inconclusive [inhibitor, partial curve, poor fit] |
| CN(C)S(=O)(=O)c1cccc(NC(=O)CSc2nncn2-c2ccccc2)c1 | inconclusive [inhibitor, partial curve, poor fit] |
| CCN(CC)c1ccc(C(=O)OCc2cc(=O)oc3cc(O)ccc23)cc1 | inconclusive [inhibitor, full curve] |
| CNc1nc(OC)nc(N2CCOCC2)n1 | inactive |
| Cc1cnc(C(=O)N2CCc3c([nH]c4ccccc34)C2c2ccc(F)cc2)cn1 (centres undefined) | active: 5.22 µM |
| COc1ccc(Oc2ccc(N/C=C3/CCCC3=O)cc2)cc1 | inconclusive [inhibitor, single point] |
| CSc1ccccc1C(=O)NCCOc1ccccc1C | inconclusive [inhibitor, partial curve, poor fit] |
| CCOc1ccc(NCc2cccn2-c2nnc(N3CCC(C(=O)NCCCN4CC(C)CC(C)C4)CC3)s2)cc1 (centres undefined) | inconclusive [inhibitor, single point] |
| CCOc1ccccc1N(CC(=O)NCc1ccco1)C(=O)CCC(=O)Nc1nccs1 | inactive |
| COc1ccc2c(c1)O[C@@H](c1cccc(C(F)(F)F)c1)[C@H](OC(=O)NCCc1ccc(OC)c(OC)c1)C2=O | inconclusive [inhibitor, single point] |
| O=C(NCc1ccc2c(c1)OCO2)c1cccc(S(=O)(=O)N2CCCCC2)c1 | inconclusive [inhibitor, partial curve, poor fit] |
| COc1ccc(CNC(=O)C2CCN(S(=O)(=O)c3ccc4c(c3)NC(=O)C(C)S4)CC2)cc1 (centres undefined) | inconclusive [inhibitor, partial curve] |
| Cc1sc2nc(CN3CCCC3)nc(Cl)c2c1C | inconclusive [inhibitor, single point] |
| Cc1ccccc1CSCCNC(=O)COc1ccc(Cl)cc1 | inactive |
| O=C(CN(C(=O)Cn1nnc(-c2cccs2)n1)c1ccc2c(c1)OCCO2)NCc1ccccc1 | inconclusive [inhibitor, single point] |
| C=CCC(COCc1ccccc1)NS(=O)(=O)c1ccccc1Br (centres undefined) | active: 13.1 µM |
| O=c1cc(-c2ccc(O)cc2)oc2cc(O[C@@H]3O[C@H](CO)[C@@H](O)[C@H](O)[C@H]3O[C@@H]3OC[C@](O)(CO)[C@H]3O)cc(O)c12 | active: 10.4 µM |
| CCOC(=O)c1ccccc1NC(=O)C(C)Oc1ccccc1 (centres undefined) | inconclusive [inhibitor, full curve] |
| COc1ccc(CCN(C)C/C=C/c2ccccc2)cc1OC | inconclusive [inhibitor, single point] |
| O=C(N/C(=C/c1ccc(Cl)cc1)C(=O)N1CCOCC1)c1ccccc1 | inactive |
| COC(=O)[C@]1(C)N[C@H](c2ccc(-c3ccc(F)cc3)cc2)[C@@H]2C(=O)N(C)C(=O)[C@@H]21 | inconclusive [inhibitor, single point] |

| Structure (SMILES) | Potency |
| --- | --- |
| COc1ccccc1Nc1nc(N)nc(CN(C)C2CCCCC2)n1 | inconclusive [inhibitor, single point] |
| S=c1[nH]nc(-c2cccs2)n1/N=C/c1cn(-c2ccccc2)nc1-c1ccc(Cl)cc1 | inconclusive [inhibitor, single point] |
| Cc1cccc(OC(C)C(=O)NC2CCS(=O)(=O)C2)c1C (centres undefined) | inactive |
| O=C1c2ccccc2CN1Cc1ccccc1 | inactive |
| C=CCN(C(=O)c1csnn1)C(C(=O)NC1CCCCC1)c1ccc(Cl)cc1 (centres undefined) | inconclusive [inhibitor, partial curve] |
| N#CCCN(C(=O)c1ccc2c(=O)n3c(nc2c1)CCCCC3)c1ccccc1 | inactive |
| CN(CC(=O)Nc1c(Cl)cccc1Cl)C(=O)c1ccccc1Cc1ccccc1 | active: 13.1 µM |
| CSc1ccccc1NC(=O)CN(Cc1ccccc1)S(C)(=O)=O | inconclusive [inhibitor, partial curve, poor fit] |
| COc1ccccc1N(C)S(=O)(=O)c1ccc(C)c(C(=O)N2CCCCCC2)c1 | inconclusive [inhibitor, single point] |
| CC(C)CC(=O)NC(=S)Nc1cc(C(F)(F)F)ccc1N1CCOCC1 | inconclusive [inhibitor, partial curve] |
| O=C(c1cc(C2CC2)nn1-c1ccccc1)N1CCN(Cc2c(F)cccc2Cl)CC1 | inconclusive [inhibitor, single point] |
| CCN(CC)S(=O)(=O)c1ccc2c(c1)[nH]c(=S)n2CC | inconclusive [inhibitor, full curve, poor fit] |
| COCCNC(=O)CN(Cc1ccccc1)C(=O)CCC(=O)Nc1nccs1 | inactive |
| CCc1cc2c(=O)[nH]cnc2s1 | inactive |
| CCC(=O)c1ccc(OCC(=O)Nc2nc(-c3cccnc3)cs2)cc1 | inconclusive [inhibitor, single point] |
| C/C(CC(=O)Nc1ccc2c(c1)OCO2)=N\NC(=O)c1ccccc1N | inconclusive [inhibitor, single point] |
| COC(=O)c1c[nH]n2c(=O)c(C(C)C)c(C)nc12 | inconclusive [inhibitor, single point] |
| CC(O)[C@H]1CNCCN1CCc1cccc2ccccc12 (some centres undefined) | inconclusive [inhibitor, single point] |
| COC(=O)c1ccccc1S(=O)(=O)N(Cc1cc2ccc(OC)cc2[nH]c1=O)CC1CCCO1 (centres undefined) | inactive |
| CC1(c2ccccc2Cl)NC(=O)N(CC(=O)N2c3ccccc3NC(=O)C2(C)C)C1=O (centres undefined) | inconclusive [inhibitor, single point] |
| COc1ccccc1Nc1nc(N)nc(CCl)n1 | inconclusive [inhibitor, partial curve] |
| O=c1ccc2cc3c([nH]c4ccc(Br)cc43)oc-2c1O | inactive |
| CCCCNC(=S)Nc1cc([N+](=O)[O-])ccc1C | inconclusive [inhibitor, single point] |
